# In all, about 4,100 sequences were measured (“arbitrary fluorescence units”: median about 780, highest 2% from about 22,000 on). Some of the results follow.
# Target: T1, ETS1 (UniProt P14921)
# T1 sequence: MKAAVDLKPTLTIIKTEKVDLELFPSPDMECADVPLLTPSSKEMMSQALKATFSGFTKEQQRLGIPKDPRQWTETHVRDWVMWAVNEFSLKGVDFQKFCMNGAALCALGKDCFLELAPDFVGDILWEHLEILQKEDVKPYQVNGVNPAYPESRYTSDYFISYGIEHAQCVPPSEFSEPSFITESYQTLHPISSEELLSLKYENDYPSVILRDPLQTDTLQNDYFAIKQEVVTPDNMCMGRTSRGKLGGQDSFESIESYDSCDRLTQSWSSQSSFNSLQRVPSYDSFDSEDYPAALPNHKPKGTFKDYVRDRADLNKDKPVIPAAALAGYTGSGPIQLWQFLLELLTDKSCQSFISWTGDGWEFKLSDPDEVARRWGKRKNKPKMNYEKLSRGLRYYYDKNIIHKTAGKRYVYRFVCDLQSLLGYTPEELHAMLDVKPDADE
# Experiment: ETS1 binding intensity (PBM fluorescence), ETS1 alone (arbitrary fluorescence units); higher = stronger binding
# Settings: ETS1 concentration 1 nM; RUNX1 concentration 0 nM
# Method: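 gcPBM on 36-bp genomic-derived probes (partner site mutated) containing one ETS1 site and no RUNX1 site. Recombinant human ETS1 (1 nM) was incubated alone or with RUNX1 (25 nM) and detected by anti-ETS1 antibody fluorescence. Values are medians over 4 replicate spots (not normalised). The probes sit in constant array flanks that are not printed.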
row,Sequence,ETS1 binding intensity
1,GTGAGGTTTGTAGTTGGAATCCACTTCCTCTGGTTT,814
2,AGCACAGCGGCCAGGACTACACATCCCAGCATGCAA,338
3,ACAGAGCAGGAAGCAGCCCTCACCTCAGATGAAGCA,2360
4,CGTCCCCGAAAAGCCGCGGCAGAAACTTCCGGCGGT,3130
5,AACAACCCAAAAGCCAACTCGGCGGAAGGCCTTGGC,341
6,GCAGGAAATGACGTCAGACCTCACTGAGGGTCTGAG,2130
7,GTAGCCGGGTGTTCCGGAGCGCTGCAGGCAAAGCAG,497
8,AGGAGGGGGAAAGCACCAAAGCCAGGAAGTTACACA,1200
9,CCAAGAGCACAGCTCCAAGAGACCTTCCTGTTTATT,548
10,AACCTCTAAGGAAGCGGTGTGTGCACCCTCATGCTG,389
11,GGCCCCTGCTTCCGGGTGTGACGCGAACCTCGGGCA,12400
12,CCCTTTTTCCCCCCAAACAGCTTCCTCTGCTAAGAA,808
13,GTTTTGTGACTTTTTAAGCATGACATACAGGATATT,550
14,TTGAAGCTCTCCCGCTGAAGCTACATCCTCTGGAAA,637
15,GTAAAAGGAAGTAAAGGCTTGGCCGGGCGCGTTGGC,1230
16,GAAGCTTCGGTGAAGTCTGAAGTTTCCTGGGCCGGG,380
17,CGCCCACCACTTCCTGCTGGCGCTCGGCAAGCGTTG,16900
18,GTAGCCACGGCGGCCGCCACGCCCCGTTTCCTGGTC,481
19,GGAGGAAGGCAGGAAAGAAAGAGGTGGATTCGGCAC,543
20,GACCTCTTTTCCTGTACTAGCAACTCCCCGCTGCAG,3720
21,GACCTTCAGCGCTGGGTCCCGGAACTGGGTTTTAGG,367
22,CATTTTGTCGGCGCAGCCACCTTCCTGGAGAGCCCG,1010
23,ACTTGACTTCCTGTGGGGTGTCTGGTGTCTGCACTT,11700
24,TGCAACGCGCTTGCGCGGACGGCTTCCTGTGTTTTC,979
25,GTGAAGACCCCAAGTTGGGGCAGATGGCTTCCGACT,343
26,TCTTCAGGCGTCTTTCCGGTGGTGGGCGTTTTTGCT,3750
27,GCCGCTGAAAGCCCTCAACCAGCGGAACGCAGGCGA,314

row,Sequence,ETS1 binding intensity
1,ACGTAGACAGGAAAGTAATGTTGTTCAGGACTGAGT,526
2,GAGGGTGAGCGGCCAAGAGACCTCCAGGAAGAGCGG,345
3,GCGGAGCTTGTAGGCCAGGAGGACTTCCGGGTGGGT,2220
4,CCAGCCGCTTCACCACCCCTCAGCGACTTCCGCTTC,1710
5,CTCCTGCTGTTGCCAGGCAACCGGCCCCGGAAGTTG,676
6,CAAAACATGAACCCCAAACCCCAGCTTCCTCTTGCA,496
7,CAGACAGGATGACAGCTGGCTGGCCTGCAGCACCTC,684
8,TAAATGCTCACCCCAACCTGCTTCCTTTTCTACCAG,575
9,TACGGGAACTTCCTTTTCTTGAGGTGTAGCCGGGTC,4380
10,TGCCGGGTCACCAGAGGCGCACGTGTTCCGGCAGGG,338
11,CGGCGCTGCAGGCACCGAGTAAAACGCGGAAGCGGG,386
12,TTCGCGCCCACCTGCATCGCCAGTTTTCCGGCGCCA,371
13,GCGAGGGTGGAAGGAAGCAGTGACAGCGCTCCTCTC,461
14,TGGGACCTCTAATCGGAGAGGGTGCGGAAACGCTGG,360
15,GCAGGTTTTGTAGGCCGCTTCCACAGGAAAACATGC,395
16,TGCTGTTTCCTCTGCTGCCGAAGCGATTTCTTCCAC,3310
17,TTTTGGGGTTCTAGAGGGGCAGGCTTCCTGATTGCA,576
18,ACAGAGGTGCTACCCCAAGGACCGGAAGCAGAGACC,3940
19,CCGGGACCGGAAGAGGGAGCCGAGGTTGCTGGAACT,13500
20,ATGGCGAAGCAGGATGCCCTCAACCTACATACGGCA,808
21,CTGTGTATTTCTGGGATGCTTGAGGAAATCAAAAAG,585
22,GCCCCGGATAGCGTCCTCACCATCCCCTCAGCGCCT,433
23,GGAACAGGAAGCGGCAGAAATAGCAGCCACCGTGGC,6960
24,AGGGGAAGTGAGAATAGGGTGCCCACCCCCGAATTC,422
25,TAGGGGGGCGCGGCGAGCCCCGGCGGGAAACGAAGC,446
26,ATCTTAGCCCTCAGCCAAAGCTCTTCCTGGTTGCTC,473
27,AGAAGCTGCACCCGGAAATGAAACCTCCAGGACCTC,4400

row,Sequence,ETS1 binding intensity
1,AGTCGCTGTTCCCACTCCACAACAGACTCGGAAGCT,426
2,CCAGAGCAGGATGTTCTGCTGTCGCTAGATAAGCCC,1940
3,TGACGTCATCGCGCAGCGCCGGAAGCGGTGAGGCAC,2220
4,TGGAAGAGGGCAGGAAGTGTTGTGCTCACTCCCACC,2270
5,GGCGGCTGTGAGCGCAAAACCCAAAACTTCCGATGG,452
6,GGAGCCTGGCTGTAGGTGAGTGCTTCCTGAAGGGGT,392
7,GCAGGAAGACTAACACAAAACCATCAAGCCACTCTG,453
8,GAAGGAGCTAGCCACGGACCGGAAACCCCCGAGGTG,3010
9,CTTGTCCCTTGTAGTTTTTTGCATTTCCTGTTCCCT,2540
10,TGGTTTCCGGGCTGGGGTTAGAATAGGCTACAAGGT,10900
11,CTAAGAATCATCCTGTGTAACAACACCCTCAGTTAG,982
12,ACTTACGCGGAGCGCTAATGTGAGGAAGCCTCCCGC,367
13,GATGCACGTCCGCGGGAGGCAAGCGCTTGCCCTGGG,370
14,ATGTCTTCCTGTACAGGAACTGGGTCCCAGCCCCAG,8210
15,CGGAGGGAAACAGCACCCCTGCCTCTTTCCTGGGCC,382
16,GGGCGCGGGCTTTCCTGTCGCCGAAGCGTGTGAGTC,1910
17,GAGTCCTCGCCGTAAACCCGAGGAGCAGGATGTGGA,414
18,CAGGCACACATCCGGGAGCGGCCTGCGCCGCGAGGC,9790
19,GGAGGAGACCTCGGCGTTAGCGTGACCCGGATGCGC,395
20,GCGAAGTGTGTGAGCAACGCGGCCGGATCCTGGAGT,380
21,TCGGGAAGTGGCATGCTGACTCACCTGTAGCTTGTC,366
22,CAACATGGTTGTGAGGGAGTGAGGAAATGGTGATTC,478
23,CCAGAATGCAGGAAGTGCTGTGCTTTGACTTTGTTT,2750
24,GTGTTTTCCTGGTGGCCCGGCCGTGCCTGAGCTTTC,1360
25,TGAAGTTCTGGGACGAAGCCAGGAAGTCAGCCCAGA,652
26,ACTCCACCTACCCTCAAAACGCACTTCCTCAGAAGC,659

# — the supplement of paper PMC10681739
